From a collection of fitness landscapes (doi:10.1016/j.celrep.2020.107928)
The full ranking holds about 81,000 sequences; the median of “one-hybrid fitness for binding NBS DNA” is about -0.1, and the highest 2% start at about 0.36. This is one part of the list.

B1: Caulobacter ParB omega fusion; a variant is named by its letters at X, in order, B8GW30 (parent)
chain: MESVVVGEPGMSEGRRGLGRGLSALLGEVDAAPAQAPGEQLGGSREAPIEILQRNPDQPRRTFREEDLEDLSNSIREKGVLQPILVRPSPDTAGEYQIVAGERAWRAAQRAGLKTVPIMVRELDDLAVLEIGIIENVQRADLNVLEEALSYKVLMEKFERTQENIAQTIGKSXSHVANXMRLLXLPDEVQSYLVSGELTAXHARAIAAAADPVALAKQIIEGGLSVRETEALARKAPNLSAGKSKGGRPPRVKDTDTQALESDLSSVLGLDVSIDHRGSTGTLTITYATLEQLDDLCNRLTRGI

Variants of: B1
Test: one-hybrid fitness for binding NBS DNA (the Noc-binding site; scaled: cognate 1, non-cognate 0); higher = stronger binding
Settings: with NBS DNA site
In short: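 Caulobacter ParB libraries with four specificity codons randomised were screened by bacterial one-hybrid selection in the E. coli USO strain, using a HIS3 reporter whose site lies 19 bp from the promoter. Selection ran for 48 hours at 37°C on M9 lacking histidine, with 0.1 mM IPTG and 5 mM 3-AT. Plasmids were Illumina-sequenced before and after selection, three replicate libraries were pooled, and variants with under 10 reads were dropped. Fitness is the log change in each variant's read ratio to wild type, rescaled against the cognate and non-cognate sites.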

Variant	one-hybrid fitness for binding NBS DNA
LRKY	≤ 0.2
RWNV	≤ 0.2
DNTG	≤ 0.2
HWLG	≤ 0.2
GPCV	≤ 0.2
THQA	≤ 0.2
GCRT	≤ 0.2
YKLR	≤ 0.2
CCQS	≤ 0.2
LRFT	≤ 0.2
CYPG	≤ 0.2
DPVT	≤ 0.2
QMWA	≤ 0.2
LNCC	≤ 0.2
KGIC	≤ 0.2
ASFT	≤ 0.2
AMLG	≤ 0.2
VHCN	≤ 0.2
CVTG	≤ 0.2
DSSM	≤ 0.2
TRID	≤ 0.2
WVTQ	≤ 0.2
FMIT	≤ 0.2
YYRW	≤ 0.2
NNHS	≤ 0.2
GDYG	≤ 0.2

Variant	one-hybrid fitness for binding NBS DNA
AVIR	≤ 0.2
CVTS	≤ 0.2
SVLH	≤ 0.2
CTVP	≤ 0.2
LTAY	≤ 0.2
EVWM	≤ 0.2
YRQA	≤ 0.2
LKSK	≤ 0.2
NQKA	≤ 0.2
QCET	0.352
LWTM	≤ 0.2
AGHP	≤ 0.2
IVKR	≤ 0.2
KWLL	≤ 0.2
LVRV	≤ 0.2
WRRV	≤ 0.2
CMSW	≤ 0.2
VMTV	≤ 0.2
SMKL	≤ 0.2
PTNI	≤ 0.2
PTHG	≤ 0.2
WRLF	≤ 0.2
ERGG	≤ 0.2
YPNY	≤ 0.2
MTDK	≤ 0.2
WRLM	≤ 0.2

Variant	one-hybrid fitness for binding NBS DNA
LRPE	≤ 0.2
VDAL	≤ 0.2
NTSR	≤ 0.2
QRGS	0.7
LDAK	≤ 0.2
TMAF	≤ 0.2
RKRH	0.429
GALL	≤ 0.2
NQHP	≤ 0.2
DTEM	≤ 0.2
WTTN	≤ 0.2
LNKV	≤ 0.2
NTNK	≤ 0.2
PTNP	≤ 0.2
STSL	≤ 0.2
GSTH	≤ 0.2
THCQ	≤ 0.2
GMND	≤ 0.2
HPQF	≤ 0.2
SAIP	≤ 0.2
PRYR	≤ 0.2
CFPD	≤ 0.2
FHCR	≤ 0.2
GHPL	≤ 0.2
KVSR	≤ 0.2
PCQS	≤ 0.2

Variant	one-hybrid fitness for binding NBS DNA
DPGR	≤ 0.2
VQPC	≤ 0.2
RTCD	≤ 0.2
ALWL	≤ 0.2
PGKQ	≤ 0.2
LLKR	≤ 0.2
LCRY	≤ 0.2
ALAA	≤ 0.2
RPYY	≤ 0.2
YDVC	≤ 0.2
HGKM	≤ 0.2
VECS	≤ 0.2
SRVC	≤ 0.2
SINW	≤ 0.2
PWAV	≤ 0.2
TTSV	≤ 0.2
RARP	≤ 0.2
KSKI	≤ 0.2
QLHL	≤ 0.2
SPNC	≤ 0.2
ILHC	≤ 0.2
TCDR	≤ 0.2
TMGF	≤ 0.2
RWRK	≤ 0.2
MKSC	≤ 0.2
GSDL	≤ 0.2

Variant	one-hybrid fitness for binding NBS DNA
YQKT	≤ 0.2
KREP	≤ 0.2
QHRL	0.221
PISS	≤ 0.2
HPRC	≤ 0.2
PHAP	≤ 0.2
KYNN	≤ 0.2
SQMC	≤ 0.2
QWSL	≤ 0.2
TTEG	≤ 0.2
YAVV	≤ 0.2
GAKN	≤ 0.2
LQAD	≤ 0.2
IPMG	≤ 0.2
TACI	≤ 0.2
AGPF	≤ 0.2
AIAC	≤ 0.2
KTEN	≤ 0.2
HYQR	≤ 0.2
FMRC	≤ 0.2
WNPL	≤ 0.2
WLST	≤ 0.2
KHGP	≤ 0.2
NNCE	≤ 0.2
DSDS	≤ 0.2
YIIS	≤ 0.2

Variant	one-hybrid fitness for binding NBS DNA
MGHL	≤ 0.2
QDMD	≤ 0.2
PAYG	≤ 0.2
PDLV	≤ 0.2
YSED	≤ 0.2
VLGE	≤ 0.2
HLTM	≤ 0.2
HFPA	≤ 0.2
ELWL	≤ 0.2
NPNM	≤ 0.2
GLYG	≤ 0.2
PLEL	≤ 0.2
HWSC	≤ 0.2
PTCA	≤ 0.2
WLIT	≤ 0.2
DTHG	≤ 0.2
PICF	≤ 0.2
PTPW	≤ 0.2
QGES	≤ 0.2
NHGS	≤ 0.2
RTVR	0.416
PTWQ	≤ 0.2
QCPT	0.382
